# “And” between values parts separate entries of the source, which are not always exact repeats. Equal values may be shown once. Among all 350,000 compounds or so, about 31,000 (8.9%) were called active. Inconclusive means that the source gave no clear call. Such entries were picked first, then a sample of the others. Calls come from the whole dose curve; as a rule, active = well fitted inhibition curve with a large enough effect; inconclusive = small, poorly fitted or top-dose-only effect; inactive = no such curve, though single readings can be large or run the other way. Potencies of inconclusive entries are doubtful fits and often do not repeat.
# Target: Histone-lysine N-methyltransferase EHMT2 (Homo sapiens) (UniProt Q96KQ7)
# Test: qHTS Assay for Inhibitors of Histone Lysine Methyltransferase G9a; note: nearly all actives have a fitted effect of over 75% in size
# Conditions: G9a H3K9 monomethylation, AlphaScreen, 2 h; activity, negative = inhibition: at 59 µM (top of the series) unless noted
# Procedure, shortened: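 Methyltransferase reactions run at room temperature for 2 h (20 nM enzyme, 500 nM biotin-H3K9 peptide, 20 uM SAM) after a 15 min compound preincubation; product detected by AlphaScreen beads and anti-H3K9me1 antibody.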
# % is set by controls: 0 for no effect and ±100 for the full control effect; potency is the fitted concentration of half-maximal effect; tags give direction and shape of the fitted curve.
# UniProt Q96KQ7, sequence (Q96KQ7 whole entry, looked up): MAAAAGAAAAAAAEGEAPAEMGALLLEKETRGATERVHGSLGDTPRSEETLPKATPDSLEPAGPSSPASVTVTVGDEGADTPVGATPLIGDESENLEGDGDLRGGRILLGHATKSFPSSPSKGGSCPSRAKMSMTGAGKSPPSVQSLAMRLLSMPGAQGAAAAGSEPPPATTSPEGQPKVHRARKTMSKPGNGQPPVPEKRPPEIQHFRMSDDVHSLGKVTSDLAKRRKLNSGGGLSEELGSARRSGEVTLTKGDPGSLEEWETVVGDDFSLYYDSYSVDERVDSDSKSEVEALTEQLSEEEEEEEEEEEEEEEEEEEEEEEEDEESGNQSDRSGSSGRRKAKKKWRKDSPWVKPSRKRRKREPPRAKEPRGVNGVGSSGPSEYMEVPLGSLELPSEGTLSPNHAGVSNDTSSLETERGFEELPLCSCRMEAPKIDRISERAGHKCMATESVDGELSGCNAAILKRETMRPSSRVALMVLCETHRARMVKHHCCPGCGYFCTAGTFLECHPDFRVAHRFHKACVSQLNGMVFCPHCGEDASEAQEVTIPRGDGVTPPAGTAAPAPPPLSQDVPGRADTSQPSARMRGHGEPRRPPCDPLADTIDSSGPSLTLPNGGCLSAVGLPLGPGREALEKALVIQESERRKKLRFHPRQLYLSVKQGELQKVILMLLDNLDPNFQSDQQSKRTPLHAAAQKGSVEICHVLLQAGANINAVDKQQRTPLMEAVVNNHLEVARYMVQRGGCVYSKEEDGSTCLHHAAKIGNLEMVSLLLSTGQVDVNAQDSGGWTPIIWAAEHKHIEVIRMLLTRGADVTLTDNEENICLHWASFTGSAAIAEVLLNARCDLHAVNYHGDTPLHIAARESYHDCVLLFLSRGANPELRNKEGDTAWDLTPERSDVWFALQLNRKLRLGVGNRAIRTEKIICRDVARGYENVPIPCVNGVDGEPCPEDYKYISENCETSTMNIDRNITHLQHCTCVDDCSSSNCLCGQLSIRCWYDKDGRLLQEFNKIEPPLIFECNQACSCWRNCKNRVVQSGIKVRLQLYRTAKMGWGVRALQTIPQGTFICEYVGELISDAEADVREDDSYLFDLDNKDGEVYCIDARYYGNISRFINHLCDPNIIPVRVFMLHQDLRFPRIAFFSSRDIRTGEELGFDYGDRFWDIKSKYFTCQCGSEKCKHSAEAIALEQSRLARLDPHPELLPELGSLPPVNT
SMILES,Potency,"activity, negative = inhibition"
CCc1nnc(NC(=O)C2CC(=O)N(CCc3ccccc3)C2)s1 (stereo not given),"inconclusive: 50.1 µM [inhibitor, partial curve, poor fit]",
CCOC(=O)c1scc(-c2ccc(C)cc2)c1S(=O)(=O)Nc1ccc(OC)c(Cl)c1,"inconclusive: 15.8 µM [inhibitor, partial curve]",
Cc1cccc(NS(=O)(=O)c2ccc3nc(-c4ccccc4)[nH]c3c2)c1C,inactive,
Cc1ccc(C)c(NC(=O)c2cc(-c3cc(C)c(C)cc3O)n[nH]2)c1,,inactive: 1.07% [at 102 µM]
COc1ccc(C2C(C(=O)Nc3ccccc3)=C(C)Nc3nc(-c4ccccc4Cl)nn32)cc1OC (stereo not given),"inconclusive: 7.94 µM [inhibitor, partial curve, poor fit]",
Cc1ccccc1C(=O)N1CCC(C(=O)Nc2sccc2C(N)=O)CC1,,inactive: -0.172% [at 12.7 µM]
Cc1nc(CC(=O)N2CCN(c3cccc(C)c3C)CC2)cs1,"inconclusive: 56.2 µM [inhibitor, partial curve]",
CC(=O)C1=C(O)C(=O)OC1c1ccc(Cl)cc1 (stereo not given),active: 50.1 µM,
CCOC(=O)c1c(C)[nH]c(C(=O)O)c1C,,inactive: -37.4%
Cc1ccc2c(c1)NC(=O)C(CC(=O)Nc1ccc(CN3CCC(C)CC3)cc1)O2 (stereo not given),"inconclusive: 89.1 µM [inhibitor, single point]",
COc1ccc(CCn2c(=O)c3cccnc3n(Cc3cccc([N+](=O)[O-])c3)c2=O)cc1OC,"inconclusive: 39.8 µM [inhibitor, partial curve, poor fit]",
Cc1cc(C)c(C)c(OCC(=O)O/N=C(\N)c2ccccn2)c1,"inconclusive: 22.4 µM [inhibitor, single point]",
CC(OC(=O)CN1C(=O)c2ccccc2C1=O)C(=O)NC1(C#N)CCCCC1 (stereo not given),"inconclusive: 3.55 µM [inhibitor, partial curve, poor fit]",
OCCN1CCN(CC/C=C2/c3ccccc3Sc3ccc(Cl)cc32)CC1,active: 15.8 µM,
O=c1c2cc(NC(=S)NCCN3CCCCCC3)ccc2nc2n1CCCCC2,"inconclusive: 50.1 µM [inhibitor, partial curve, poor fit]",
O=C(Cc1ccccc1)Nc1ccccc1C(=O)Nc1ccc(C(=O)O)cc1,"inconclusive: 79.4 µM [inhibitor, partial curve, poor fit]",
CCOc1ccc(NC(=O)N2CCN(CC)CC2)cc1,"inconclusive: 17.8 µM [inhibitor, partial curve, poor fit]",
COC(=O)c1c(/N=C/NOCc2ccc(Cl)cc2)sc2c1CCN(c1ncc(C(F)(F)F)cc1Cl)C2,"inconclusive: 89.1 µM [inhibitor, single point]",
Cc1cc(C(=O)N/N=C/c2ccc(C)o2)c2ccccc2n1,"inconclusive: 89.1 µM [inhibitor, single point]",
COc1ccc(/C(O)=C2/C(=O)C(=O)N(c3ccccn3)C2c2ccc(OC)c(OC)c2)cc1 (stereo not given),"inconclusive: 89.1 µM [inhibitor, single point]",
Cc1ccc(NC(=O)N/C=C/c2ccco2)cc1,"inconclusive: 15.8 µM [inhibitor, partial curve, poor fit]",
C=CCn1c(C)cc(C(=O)CSc2nnc3c(Cl)cc(Cl)cn23)c1C,,inactive: -8.32% [at 102 µM]

SMILES,Potency,"activity, negative = inhibition"
CCn1nnc(NC(=O)c2ccc(-c3ccc(Cl)cc3)o2)n1,active: 44.7 µM,
CCN1CCN(CCCN(Cc2ccco2)C(=S)Nc2ccc(Cl)cc2)CC1,"inconclusive: 50.1 µM [inhibitor, partial curve]",
CN1CCN(c2ccc(NC(=O)COc3ccc(Cl)cc3Cl)cc2)CC1,"inconclusive: 39.8 µM [inhibitor, partial curve, poor fit]",
C=CCSc1nc(N)c2c3c(sc2n1)CN(C)CC3,"inconclusive: 89.1 µM [inhibitor, single point]",
O=C(Nc1nnc(C2CC2)s1)C1CCCCC1,"inconclusive: 3.16 µM [inhibitor, partial curve, poor fit]",
CCC(C)(C)NC(=O)CN(Cc1ccc(OC)cc1)C(=O)CCC(=O)Nc1nccs1,,inactive: 6.21% [at 102 µM]
COc1ccc(N2CCN(CC(=O)Nc3nc(C)cs3)CC2)cc1,active: 3.55 µM,
Cc1nc2ccn(Cc3cccs3)c(=O)c2cc1C(=O)N1CCN(c2ccccc2)CC1,,inactive: -8.24%
COc1ccc(CCN2C(=O)c3ccccc3C2(O)c2ncc[nH]2)cc1OC (stereo not given),active: 22.4 µM,
COc1ccc(Cl)cc1C(=O)NCC#N,,inactive: -0.132% [at 12.7 µM]
Cc1cccc(OCCOCCN2CCOCC2)c1C,,inactive: 7.1% [at 12.7 µM]
CCCc1cc(CNC(=O)C2CCC(=O)N(Cc3ccccc3OC)C2)on1 (stereo not given),"inconclusive: 89.1 µM [inhibitor, single point]",
O=[N+]([O-])c1cccc(-c2csc(CS(=O)(=O)Cc3ccco3)n2)c1,"inconclusive: 50.1 µM [inhibitor, partial curve, poor fit]",
O=C(CCC1N=C2c3ccccc3N=C(SCc3ccc(F)cc3)N2C1=O)NCc1ccco1 (stereo not given),"inconclusive: 3.16 µM [inhibitor, partial curve, poor fit]",
CN1C(=O)NC(c2ccccc2)C2=C1CN(c1ccc3ccccc3c1)C2=O (stereo not given),"inconclusive: 39.8 µM [inhibitor, single point]",
NC(=O)CC[C@@H]1NC(=O)[C@H](Cc2ccc(O)cc2)NC(=O)c2cc([N+](=O)[O-])cc(F)c2OCC[C@@H](C(N)=O)NC1=O,"inconclusive: 89.1 µM [inhibitor, single point]",
C/C(=N\NC(=O)c1ccc(Cl)c(Cl)c1)c1ccccn1,,inactive: -9.48% [at 102 µM]
CCOC(=O)N1CCN(Cc2nc3cc(NC(=O)c4ccccc4OC)ccc3n2C(C)C)CC1,"inconclusive: 28.2 µM [inhibitor, single point]",
CCOc1ccccc1-n1c(SCC(=O)Nc2nccs2)nnc1-c1ccoc1C,"inconclusive: 50.1 µM [inhibitor, partial curve]",
COC(=O)C1=C(C(=O)OC)[C@@H]2N(C)c3ccc(OC)cc3[C@@]23C[C@@H](C(=O)OC)N(C(=O)c2cccs2)C3=N1,active: 39.8 µM,
Cc1ccc(-n2nc3c(=O)n(CC(=O)NCc4ccco4)nc(C)c3c2C)cc1,"inconclusive: 6.31 µM [inhibitor, partial curve, poor fit]",
Cc1ccccc1NC(=S)N(Cc1ccccn1)Cc1ccccc1Cl,,inactive: 3.45% [at 102 µM]

SMILES,Potency,"activity, negative = inhibition"
CN(C)/C=C1\C(=O)NN=C1c1ccccc1,active: 50.1 µM,
Cc1cccc(NC(=S)N(CCN(C)C)C(C)c2ccccn2)c1 (stereo not given),,inactive: 21.8% [at 12.7 µM]
O=C(OCc1ccc([N+](=O)[O-])cc1Cl)c1cnccn1,"inconclusive: 70.8 µM [inhibitor, single point]",
COc1ccc(CNC(=O)c2nc(S(=O)(=O)Cc3ccccc3)ncc2Cl)cc1,"inconclusive: 39.8 µM [inhibitor, partial curve, poor fit] and inconclusive: 44.7 µM [inhibitor, partial curve, poor fit]",
Cc1ccc2nc3c(cc(C#N)c(=O)n3-c3nccs3)c(=O)n2c1,"inconclusive: 89.1 µM [inhibitor, single point]",
CCOC(=O)N1CCC(NC(=O)C(NS(=O)(=O)c2cccc3nsnc23)c2ccccc2)CC1 (stereo not given),"inconclusive: 50.1 µM [inhibitor, partial curve, poor fit]",
NC(=O)C1=C[C@H](C2CCCCC2)C[C@H](OCc2ccc(CO)cc2)O1,,inconclusive: -62.5% [inhibitor]
O=C(Nc1cccc(S(=O)(=O)NCc2ccco2)c1)c1cc(-c2ccccc2)nc2ccccc12,"inconclusive: 25.1 µM [inhibitor, single point]",
CCCc1cc(=O)oc2c(C)c(OCC(=O)N3C[C@H]4C[C@@H](C3)c3cccc(=O)n3C4)ccc12,"inconclusive: 89.1 µM [inhibitor, single point]",
Cc1cc(C)n2nc(C(=O)Nc3ccc4c(c3)OCO4)nc2n1,"inconclusive: 35.5 µM [inhibitor, partial curve, poor fit]",
Cc1cc(C)cc(C(=O)OCC(=O)N2CCCCCC2)c1,,inactive: 5.29%
Cc1nc2nc(SCC(=O)N(Cc3ccccc3)C(C)C)nn2c(C)c1Cc1ccccc1Cl,"inconclusive: 25.1 µM [inhibitor, partial curve, poor fit]",
COc1ccc(Cl)cc1C(=O)NNC(=O)c1n[nH]c2ccccc12,"inconclusive: 7.08 µM [inhibitor, single point]",
COc1ccc(N2CCN(CC(=O)Nc3ccccc3SC)CC2)cc1,,inactive: -50.1% [at 12.7 µM]
COc1ccc(Cl)cc1N(C)C(=O)CCNC(=O)Cn1cnc2ccccc2c1=O,"inconclusive: 89.1 µM [inhibitor, single point]",
Cc1ccn2c(Nc3ccc4c(c3)OCO4)c(-c3ccccn3)nc2c1,"inconclusive: 25.1 µM [inhibitor, single point]",
O=C(CSc1nnc([C@@H]2CCCN2)o1)c1ccc(Cl)cc1,active: 39.8 µM,
Cc1ccc(NC(=O)C(C)OC(=O)/C=C/c2ccccc2)cc1S(=O)(=O)N1CCOCC1 (stereo not given),"inconclusive: 56.2 µM [inhibitor, partial curve, poor fit]",
COC(=O)c1cc2occc2n1Cc1nc(-c2cccc(Br)c2)oc1C,,inactive: 3.69%
Oc1ccc2oc3c(c2c1C=NCc1ccncc1)CCCC3,active: 70.8 µM,
CN(CC(=O)NC(=O)NC1CCCCC1)CC(=O)Nc1ccc(Cl)cc1,"inconclusive: 7.94 µM [inhibitor, partial curve, poor fit]",

# Source: PubChem BioAssay AID504332 (National Center for Advancing Translational Sciences (NCATS), 2011)
